This is one part of the list. Read counts after selection give these values, which scatter widely. Each score is taken over the longer molecules that contain the sequence shown.
These sequences were tested on IMP3 KH1-4 (assay: 6-mer SELEX enrichment z-score vs GST control; IMP3 is the RNA-binding protein IGF2BP3; higher = more enriched by binding). Conditions: construct: KH1-4 (164-579); SELEX round: R4.
Method: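 SELEX-seq with GST-tagged IMP3 KH1-4 (Pro164-Lys579) and an N40 RNA pool, round 4. 6-mer z-score of sequence-tag enrichment normalised to the corresponding GST SELEX round; RNA k-mers written as DNA (T for U).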

Sequence of IMP3 KH1-4 (chain, as listed by the source): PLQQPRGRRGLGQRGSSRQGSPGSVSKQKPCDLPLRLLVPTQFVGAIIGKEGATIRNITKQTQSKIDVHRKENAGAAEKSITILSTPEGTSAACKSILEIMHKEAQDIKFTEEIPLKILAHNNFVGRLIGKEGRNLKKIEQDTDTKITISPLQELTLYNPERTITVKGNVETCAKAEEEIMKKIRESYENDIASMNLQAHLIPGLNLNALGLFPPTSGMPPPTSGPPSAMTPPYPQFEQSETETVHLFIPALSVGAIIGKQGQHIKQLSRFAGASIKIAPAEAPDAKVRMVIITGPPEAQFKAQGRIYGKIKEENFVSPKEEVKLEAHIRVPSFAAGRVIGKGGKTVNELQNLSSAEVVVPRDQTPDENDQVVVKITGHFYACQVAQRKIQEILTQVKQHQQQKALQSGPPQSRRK

Sequence | 6-mer SELEX enrichment z-score
ACATCT | 0.208
CGGGTG | -0.814
CGAAGT | -1.04
CCCTAA | -1.13
CACAAG | -0.111
CCCGCC | -1
CGCATG | 0.308
ATCTTC | 0.535
ACAATC | 0.408
ACAGTT | 0.565
CATCTG | 0.177
CTCGAG | -0.807
GTACAG | 0.355
TTCGAG | -1.45
TCATCA | 1.46
AAACTG | -0.322
TCAGCT | -0.008
ATGATT | 1.69
AATGCG | -0.681
GGGGAA | 0.717

Sequence | 6-mer SELEX enrichment z-score
CAGTTA | 0.48
AGCGTG | -3.96
CCAAAG | -1.89
CAGTAG | -0.166
TCCTTT | 1.18
CCGCGC | -0.946
GTTCTA | 0.128
ATAGTG | 0.548
CAAACA | 0.199
CTCCAC | -0.021
TTAAAA | 0.288
CAACGT | -1.22
TGCATC | 0.883
ACCTTC | -0.329
TAAATG | 0.732
GGCGCT | -0.133
CACCCA | -1.55
AGAACA | 1.34
GGACCA | -0.283
ACAGGA | 1.44

— the supplement of paper PMC6531468
